Some of the results follow. Single values are uncertain, as repeats are few or missing.
Columns and labels:
IMR-32 [1] = assay: drug sensitivity score (DSS), single drug with vehicle (DSS (score)); higher = more cytotoxic; extreme values may be limits of the assay; settings: 72 h; co-treatment: vehicle (DMSO)
SK-N-AS [2] = assay: as above; settings: 72 h; co-treatment: vehicle (DMSO)
SK-N-AS [3] = assay: drug sensitivity score (DSS) in combination with SL-176 (DSS (score)); higher = more cytotoxic; extreme values may be limits of the assay; settings: 72 h; co-treatment: SL-176 11.2 uM (IC25 in IMR-32)
IMR-32 [4] = assay: as above; settings: 72 h; co-treatment: SL-176 11.2 uM (IC25 in IMR-32)
SK-N-AS [5] = assay: drug sensitivity score (DSS) in combination with GSK2830371 (DSS (score)); neuroblastoma lines; SL-176 and GSK2830371 are WIP1 inhibitors; higher = more cytotoxic; extreme values may be limits of the assay; settings: 72 h; co-treatment: GSK2830371 at IC25 in IMR-32
IMR-32 [6] = assay: as above; settings: 72 h; co-treatment: GSK2830371 at IC25 in IMR-32
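Wherever drug sensitivity score (DSS) in combination with GSK2830371 is given: neuroblastoma cells in 384-well plates, each compound at five concentrations, luminescence read-out, DSS derived from fitted concentration-response curve combining IC50 with minimum and maximum inhibition.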
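Wherever drug sensitivity score (DSS) in combination with SL-176 is given: cells in 384-well plates, luminescence read-out, each screening drug at five concentrations, DSS derived from the fitted concentration-response curve combining IC50 with minimum and maximum inhibition.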
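Wherever drug sensitivity score (DSS), single drug with vehicle is given: 384-well screen with five concentrations per compound and a luminescence read-out, DSS computed from the fitted dose-response curve combining IC50 with minimum and maximum inhibition.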

SMILES | drug sensitivity score (IMR-32 [1]) | drug sensitivity score (SK-N-AS [2]) | drug sensitivity score (SK-N-AS [3]) | drug sensitivity score (IMR-32 [4]) | drug sensitivity score (SK-N-AS [5]) | drug sensitivity score (IMR-32 [6])
CNC(=O)[C@@H](NC(=O)[C@H](CC(C)C)[C@H](O)C(=O)NO)C(C)(C)C [Marimastat] | 0 | 0.4 | 0 | 10 | 0.6 | 0
CCOc1cc2ncc(C#N)c(Nc3ccc(OCc4ccccn4)c(Cl)c3)c2cc1NC(=O)/C=C/CN(C)C [Neratinib] | 0.6 | 1.4 | 1.4 | 0.3 | 1.5 | 0.2
C[C@@H](Oc1cc(-c2cnn(C3CCNCC3)c2)cnc1N)c1c(Cl)ccc(F)c1Cl [Crizotinib] | 0 | 0 | 0.2 | 0.7 | 0.2 | 2.3
COc1cccc2c1C(=O)c1c(O)c3c(c(O)c1C2=O)C[C@@](O)(C(C)=O)C[C@@H]3O[C@H]1C[C@H](N)[C@H](O)[C@H](C)O1 [Daunorubicin] | 21.2 | 9.1 | 8.1 | 21.9 | 9.3 | 24
Nc1nc2[nH]cc(CCc3ccc(C(=O)N[C@@H](CCC(=O)O)C(=O)O)cc3)c2c(=O)[nH]1 [Pemetrexed] | 19 | 2.1 | 3.2 | 14.2 | 3.9 | 27.4
Cn1nnc2c(C(N)=O)ncn2c1=O [Temozolomide] | 0 | 0 | 0 | 0.3 | 0 | 0.9
CS(=O)(=O)c1ccc(C(=O)Nc2ccc(Cl)c(-c3ccccn3)c2)c(Cl)c1 [Vismodegib] | 0 | 0 | 0 | 0 | 0 | 0
Cc1cn(-c2cc(NC(=O)c3ccc(C)c(Nc4nccc(-c5cnccn5)n4)c3)cc(C(F)(F)F)c2)cn1 [Radotinib] | 0 | 2 | 3 | 15.6 | 1.6 | 0.5
Cc1nc(Nc2n[nH]c3c2CN(C(=O)N[C@H](CN(C)C)c2ccccc2)C3(C)C)c2sccc2n1 | 25.6 | 22.3 | 22.4 | 26.9 | 21.8 | 34.1
COc1cc(OC2CCN(C)CC2)ccc1Nc1ncc2c(n1)n(C1CCCC1)c(=O)n2C | 5.1 | 3.2 | 3.7 | 8.7 | 3 | 8.8
O=C(O)c1ccc(O)c2ncccc12 | 5 | 2.2 | 3.1 | 6 | 2.1 | 5
C=CC[C@@H]1/C=C(\C)C[C@H](C)C[C@H](OC)[C@H]2O[C@@](O)(C(=O)C(=O)N3CCCC[C@H]3C(=O)O[C@H](/C(C)=C/[C@@H]3CC[C@@H](O)[C@H](OC)C3)[C@H](C)[C@@H](O)CC1=O)[C@H](C)C[C@@H]2OC [Tacrolimus] | 0 | 2.1 | 4 | 4.3 | 1.6 | 0
CC(=O)Nc1ccc(C(=O)Nc2ccccc2N)cc1 [Tacedinaline] | 0 | 0.1 | 0 | 0 | 0 | 0.9
CN(CC(=O)N(Cc1ccc(C2CCCCC2)cc1)c1ccc(C(=O)O)cc1)S(=O)(=O)c1c(F)c(F)c(F)c(F)c1F | 6.3 | 6.3 | 6.9 | 6.5 | 5.7 | 5
Nc1ccn([C@@H]2O[C@H](CO)[C@@H](O)C2(F)F)c(=O)n1 [Gemcitabine] | 26.7 | 17.5 | 16.1 | 24.2 | 17.6 | 30.1
Cc1ccc(-c2cc(C(F)(F)F)nn2-c2ccc(S(N)(=O)=O)cc2)cc1 [Celecoxib] | 0 | 0 | 0 | 0 | 0 | 0.7
CCNC(=O)c1noc(-c2cc(C(C)C)c(O)cc2O)c1-c1ccc(CN2CCOCC2)cc1 [Luminespib] | 15.2 | 22.3 | 26.3 | 16.2 | 23 | 22.5
Cc1ccc(-n2nc(C(C)(C)C)cc2NC(=O)Nc2ccc(OCCN3CCOCC3)c3ccccc23)cc1 [Doramapimod] | 8.4 | 2.1 | 2.4 | 8.1 | 1.8 | 7.6
CCN(CC)Cc1ccc2cc(COC(=O)Nc3ccc(C(=O)NO)cc3)ccc2c1 [Givinostat] | 13.2 | 8.8 | 8.1 | 14.2 | 8.4 | 16.3
Cn1ncc(Cl)c1-c1cc(C(=O)N[C@H](CN)Cc2ccc(F)c(F)c2)oc1Cl [Uprosertib] | 0.4 | 0 | 0 | 0.5 | 0 | 0

SMILES | drug sensitivity score (IMR-32 [1]) | drug sensitivity score (SK-N-AS [2]) | drug sensitivity score (SK-N-AS [3]) | drug sensitivity score (IMR-32 [4]) | drug sensitivity score (SK-N-AS [5]) | drug sensitivity score (IMR-32 [6])
C=CCn1c(=O)c2cnc(Nc3ccc(N4CCN(C)CC4)cc3)nc2n1-c1cccc(C(C)(C)O)n1 | 19 | 19.9 | 19.7 | 21 | 19.6 | 19
COc1cc2c(NC3CCN(C(C)C)CC3)nc(C3CCCCC3)nc2cc1OCCCN1CCCC1 | 4.7 | 5.4 | 6.9 | 6 | 6.5 | 7.5
CC[C@H](C)C(=O)O[C@H]1C[C@H](O)C=C2C=C[C@H](C)[C@H](CC[C@@H](O)C[C@@H](O)CC(=O)O)[C@H]21 [Pravastatin] | 0 | 0 | 0 | 0 | 0 | 0
CC(C)Oc1ccc(C(=O)N[C@H](CNC(=O)CN(C)C)Cc2ccc(-c3cn4cccc([C@H](C)O)c4n3)cc2)cc1Cl | 25.4 | 3.3 | 10.8 | 25.7 | 9.7 | 30.4
CN1CCN(c2ccc(C(=O)Nc3n[nH]c4ccc(Cc5cc(F)cc(F)c5)cc34)c(NC3CCOCC3)c2)CC1 [Entrectinib] | 0 | 1.5 | 0.4 | 1.4 | 1.8 | 2
NC(=O)N1CCC(CC(=O)N2CCC([C@H]3c4ncc(Br)cc4CCc4cc(Cl)cc(Br)c43)CC2)CC1 [Lonafarnib] | 15.5 | 11.4 | 13.3 | 21.7 | 11.3 | 20.3
CN(C)C1CCN(C(=O)c2ccc(NC(=O)Nc3ccc(-c4nc(N5CCOCC5)nc(N5CCOCC5)n4)cc3)cc2)CC1 [Gedatolisib] | 11.9 | 10.3 | 10.1 | 12.9 | 10.4 | 16.3
O=c1[nH]c(C2CCCN2)nc2c1oc1ccc(Cl)cc12 (stereo not given) | 9.2 | 0 | 0 | 9.8 | 0 | 9.6
C#Cc1cccc(Nc2ncnc3cc(OCCOC)c(OCCOC)cc23)c1 [Erlotinib] | 0 | 1.2 | 0.9 | 1.4 | 1.5 | 2.7
CC(C)C[C@H](NC(=O)[C@@H](COC(C)(C)C)NC(=O)[C@H](Cc1ccc(O)cc1)NC(=O)[C@H](CO)NC(=O)[C@H](Cc1c[nH]c2ccccc12)NC(=O)[C@H](Cc1cnc[nH]1)NC(=O)[C@@H]1CCC(=O)N1)C(=O)N[C@@H](CCCNC(=N)N)C(=O)N1CCC[C@H]1C(=O)NNC(N)=O [Goserelin] | 0 | 0 | 0 | 0.5 | 0 | 0
COC[C@H](NC(=O)c1cnc(C)s1)C(=O)N[C@@H](COC)C(=O)N[C@@H](Cc1ccccc1)C(=O)[C@@]1(C)CO1 [Oprozomib] | 22 | 20.5 | 23.7 | 21.4 | 22 | 19.1
C=C1C[C@@H]2CC[C@@]34C[C@H]5O[C@H]6[C@@H](O3)[C@H]3O[C@H](CC[C@@H]3O[C@H]6[C@H]5O4)CC(=O)C[C@@H]3[C@@H](OC)[C@@H](C[C@H](O)CN)O[C@H]3C[C@H]3O[C@@H](CC[C@@H]1O2)C[C@@H](C)C3=C [Eribulin] | 41.6 | 30.3 | 29 | 39.5 | 30.2 | 42.4
Nc1nc(Cl)nc2c1ncn2[C@@H]1O[C@H](CO)[C@@H](O)[C@@H]1F [Clofarabine] | 33.4 | 14.6 | 13.1 | 32.5 | 14 | 33.8
Cc1cc(F)c(C(=O)Nc2cccc(-c3nncn3C(C)C)n2)cc1-n1cnc(C2CC2)c1 [Selonsertib] | 0 | 0 | 0 | 0 | 0 | 0
CCN(CC)CCCC(C)Nc1ccnc2cc(Cl)ccc12 (stereo not given) [Chloroquine] | 10 | 7.4 | 7.1 | 9.7 | 8.5 | 12.1
CC(C)NC[C@@H](C(=O)N1CCN(c2ncnc3c2[C@H](C)C[C@H]3O)CC1)c1ccc(Cl)cc1 [Ipatasertib] | 0.3 | 2.7 | 2 | 1.9 | 2.5 | 3.7
O=C(c1cc(Cc2n[nH]c(=O)c3ccccc23)ccc1F)N1CCN(C(=O)C2CC2)CC1 [Olaparib] | 18.3 | 3.3 | 1.9 | 24.5 | 2.4 | 22.2
C[C@@H]1C[C@H]2[C@@H]3CCC4=CC(=O)C=C[C@]4(C)[C@@]3(F)[C@@H](O)C[C@]2(C)[C@@]1(O)C(=O)CO [Dexamethasone] | 0 | 0 | 0 | 0.4 | 0 | 0
C=CC(=O)N1CCC(Oc2cc3c(Nc4ccc(Cl)c(Cl)c4F)ncnc3cc2OC)CC1 [Poziotinib] | 0.5 | 0 | 0 | 0 | 0 | 0
N#Cc1ccc2[nH]c(O)c(-c3ccc(CN4CCOCC4)cn3)c2c1 | 0 | 0 | 0 | 0 | 0 | 0

Reference: the supplement of paper PMC12009370
